Assay results: PubChem BioAssay AID2546 (National Center for Advancing Translational Sciences (NCATS), 2010)
“And” between values parts separate entries of the source, which are not always exact repeats. Identical values can stand only once. Out of some 310,000 compounds screened, about 11,000 (3.5%) were called active. The shares of active, inactive and inconclusive entries below differ from those in the screen. Calls come from the whole dose curve; as a rule, active = well fitted inhibition curve with a large enough effect; inconclusive = small, poorly fitted or top-dose-only effect, or effect the other way; inactive = flat fitted curve, though single readings scatter. Potencies of inconclusive entries are left out as doubtful fits.

assay: VP16 counterscreen qHTS for inhibitors of ROR gamma transcriptional activity; conditions: Drosophila S2 Gal4-VP16 UAS-luciferase, luminescence, 20 h; activity, negative = inhibition: at 53.6 µM (top of the series);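 note: Gal4-VP16 expression switched on by copper sulfate through the metallothionein promoter; nearly all actives have a fitted effect of over 50% in size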
% is set by controls: 0 for no effect and ±100 for the full control effect; potency is the fitted concentration of half-maximal effect; tags give direction and shape of the fitted curve.

Structure (SMILES) | Potency | activity, negative = inhibition
CCn1c(SCC(=O)Nc2ccc(C(C)=O)cc2)nc2c([nH]c3ccccc32)c1=O | inconclusive [inhibitor, single point] | –
C[C@@H](C(=O)Nc1ccc2ccccc2c1)[C@@H]1C[C@@]1(C)[C@@H](NC(=O)c1cccnc1)c1ccccc1 | inconclusive [activator, single point] | –
CCN(CC)C(=O)N1CCC(NC(=O)c2ccc(C(C)(C)C)cc2)CC1 | inactive | –
O=C(CCl)N(C/C=C/c1ccccc1)c1ccc2c(c1)OCCO2 | inconclusive [inhibitor, single point] | –
CCOC(=O)C(=O)Nc1cc(C)nn1-c1nc2ccccc2[nH]1 | inactive | –
COc1cccc(/C=N/NC(N)=S)c1OS(=O)(=O)c1ccccc1 | inconclusive [inhibitor, single point] | –
CN(C)c1ccc(-c2c(-c3ccc4c(c3)OCO4)noc2-c2ccsc2)cn1 | inactive | –
Cc1ccc(C(=O)C[n+]2cc(-c3ccc(C)cc3)n3c2CCCCC3)cc1 | active: 5.01 µM | –
CCc1nnc(SCc2cn3c(C)cc(C)nc3n2)n1N | inactive | –
COc1cccc(NC(=O)CSc2nnc(C)s2)c1 | inactive | –
CCCCc1ccc(NC(=S)N2CCCC2)cc1 | active: 10 µM | –
Cn1ccnc1C(O)c1ccccc1 (stereo unspecified) | – | inactive: -2.51% [at 10 µM]
COc1cccc(-c2ccc(SCc3ccccn3)nn2)c1 | inconclusive [activator, full curve, poor fit] | –
Cc1ccc(NC(=S)N2CCN(c3ccccc3F)CC2)c(C)c1 | active: 7.08 µM | –
Oc1ccc(/C=N\Nc2cc(N3CCOCC3)nc(N3CCOCC3)n2)c(O)c1 | inactive | –
CC(C)(C)C(=O)COC(=O)c1cc(-c2cccnc2)nc2ccccc12 | active: 35.5 µM | –
Nc1sc(-c2ccccc2)cc1-c1n[nH]c(=S)n1C1CCCCC1 | inconclusive [inhibitor, partial curve] | –
O=C1/C(=C/c2c[nH]c3ccccc23)CCC/C1=C\c1c[nH]c2ccccc12 | inconclusive [inhibitor, single point] | –
COCCCNC(=S)N/N=C/c1cccc(OC)c1O | active: 1.58 µM | –
O=C(N/N=C/c1cccc(C(F)(F)F)c1)c1ccccc1O | inconclusive [inhibitor, single point] | –
CC(=O)N1c2ccc(S(=O)(=O)N(C)Cc3ccccc3)cc2CC1C (stereo unspecified) | inactive | –
c1ccc(-c2ncc3c(ccc4ccccc43)n2)cc1 | inconclusive [inhibitor, single point] | –
S=C(NCc1cccs1)Nc1ccccc1Cl | active: 14.1 µM | –
C#CCSc1nnc(CSc2nc3ccccc3s2)n1-c1ccccc1 | inconclusive [inhibitor, single point] | –
COc1ccc(C(=O)CC2OC(=O)c3ccccc32)cc1OC (stereo unspecified) | inconclusive [activator, partial curve] | –
CCCOc1ccc(C(O)CCNC(CC(=O)O)c2ccccc2)cc1 (stereo unspecified) | inconclusive [activator, single point] | –

Structure (SMILES) | Potency | activity, negative = inhibition
COc1ccc(/C=N/Nc2ncnc3sc4c(c23)CCCC4)cc1OC | active: 3.98 µM | –
CC(=O)COc1ccc2c(C)c(-c3ccccc3)c(=O)oc2c1 | inconclusive [activator, single point] | –
CCOC(=O)c1ccc(NC(=O)c2ccc3c(c2)C(=O)N(Cc2cccnc2)C3=O)cc1 | active: 11.2 µM | –
COc1ccc(-n2c(=S)[nH]c3cc(C(=O)N(C)Cc4ccccc4)ccc3c2=O)cc1 | inconclusive [inhibitor, single point] | –
CC(C)CCn1c(NCCc2ccccc2)nc2c1c(=O)n(C)c(=O)n2C | inconclusive [inhibitor, single point] | –
Oc1c(Cl)cccc1C=Nc1cc(C(F)(F)F)ccc1N1CCCC1 | inconclusive [inhibitor, single point] | –
CCOC(=O)C1=C(C)N(C)C(=S)NC1c1ccc(Cl)cc1 (stereo unspecified) | active: 3.55 µM | –
COc1cc(NS(=O)(=O)c2ccc3ccccc3c2)c2ncccc2c1 | active: 708 nM and active: 562 nM | –
CC(C)(C)c1cc(CCC(=O)NNC(=S)NC(=O)c2ccccc2)cc(C(C)(C)C)c1O | active: 12.6 µM | –
CC(C)c1ccc(S(=O)(=O)N2CCN(CC(=O)c3ccc(O)c(O)c3)CC2)cc1 | inactive | –
COc1ccc(C(=O)Nc2ccc(NC(=O)Cc3ccccc3)cn2)cc1 | inactive | –
COc1ccc(/C=N/NC(=S)Nc2ccccc2)cc1COc1ccc(F)cc1F | active: 1 µM | –
Cc1ccsc1/C=C1\SC(N)=NC1=O | inconclusive [inhibitor, single point] | –
Cc1ccc(C2=NN(C(=O)CCl)C(c3ccco3)C2)o1 (stereo unspecified) | inconclusive [inhibitor, single point] | –
COc1ccc(CNCC(O)(c2ccc(F)cc2)c2ccc(F)cc2)cc1OC | inconclusive [inhibitor, single point] | –
COc1ccc(-c2nn(-c3ccccc3)cc2/C=N/N2C(=O)CSC2=S)cc1 | inconclusive [inhibitor, single point] | –
COc1ccc(NC(=O)c2ccc(S(=O)(=O)N(C)c3ccccc3)cc2)cn1 | inconclusive [inhibitor, single point] | –
OCCCc1cn(-c2ccccc2)c2ccccc12 | inactive | –
COC(=O)c1ccc(/C=N/NC(=S)NC(C)C)cc1 | active: 7.08 µM | –
COc1ccc(/C=N/Nc2cc(C)nc3ccc(Br)cc23)cc1 | inconclusive [inhibitor, single point] | –
Fc1ccc(CNC(=S)NCc2ccc(F)cc2)cc1 | inconclusive [inhibitor, single point] | –
CC(C)(C)c1ccc(S(=O)(=O)N2CCC(O)(c3ccc(Cl)cc3)CC2)cc1 | inconclusive [inhibitor, single point] | –
Cc1occc1C(=O)n1nnc2ccccc21 | inconclusive [inhibitor, single point] | –
CC(CNC(=O)CCS(=O)(=O)c1cc2c(cc1Cl)NC(=O)CO2)c1ccccc1 (stereo unspecified) | inconclusive [inhibitor, single point] | –
CC(=O)SC1CC(=O)N(c2ccc(C(C)(C)C)cc2)C1=O (stereo unspecified) | inconclusive [inhibitor, single point] | –
Cc1cc(O)ccc1NC(=S)NC(=O)c1cncc(Br)c1 | active: 0.562 µM | –

Structure (SMILES) | Potency | activity, negative = inhibition
COc1cc(/C=N\NS(=O)(=O)c2ccccc2)cc(OC)c1OC | inactive | –
CCCNC(=O)C(=O)N/N=C/c1ccc(OCc2ccccc2)cc1 | inactive | –
COC(=O)c1sccc1NC(=S)Nc1ccc(F)cc1F | inconclusive [inhibitor, single point] | –
O=C(c1ccccc1)c1ccccc1 | inactive | –
O=C1CC(SCc2nc3ccccc3[nH]2)C(=O)N1c1cccc(Cl)c1 (stereo unspecified) | active: 12.6 µM | –
COc1ccc(/C=N/n2cnn(Cc3ccccc3Cl)c2=S)cc1OC | inconclusive [inhibitor, single point] | –
COc1ccccc1S(=O)Cc1ccc(C(=O)NCc2ccccc2Cl)o1 (stereo unspecified) | inactive | –
O=c1c2c3c(sc2ncn1/N=C/c1ccccc1)CCCC3 | inconclusive [activator, full curve, poor fit] | –
CC(C)(C)C(=O)Nc1nnc(-c2ccncc2)o1 | active: 17.8 µM | –
O=C1Nc2ccc(Cl)cc2[C@@](C#CC2CC2)(C(F)(F)F)O1 | inconclusive [inhibitor, single point] | –
COC(=O)[C@@]1(Cc2ccc(F)cc2)[C@@H]2C(=CC(=O)[C@H]2CC(=O)C(=O)N2CCCC2)CN1C(=O)c1ccccc1 | inconclusive [inhibitor, single point] | –
Cc1ccc(/C=C2\Sc3ccccc3C2=O)s1 | inconclusive [inhibitor, single point] | –
Cc1cc(OCc2cc(C(=O)NCC3(C)COC3)no2)cc(C)c1Cl | inconclusive [inhibitor, single point] | –
COc1ccc(N2C(=S)N=C(Nc3cccc(C)c3)C23CCCCC3)cc1 | active: 6.31 µM | –
Cc1ccc(Cn2c(=S)[nH]c3ccc(N4CCOCC4)cc3c2=O)o1 | active: 3.98 µM | –
COc1cc(SC)ccc1C(=O)Nc1ccc2c(c1)OCO2 | inactive | –
CCc1ccc(/C=N\NC(=O)c2ccc(Br)o2)s1 | active: 5.01 µM | –
O=C(N/N=C/c1sc(=O)n(-c2ccccc2)c1Cl)c1ccccc1 | inconclusive [inhibitor, single point] | –
Cc1cccc2sc(NC(=O)C3c4ccccc4Oc4ccccc43)nc12 | inactive | –
Cc1ccc(NC(=O)CN2C(=O)S/C(=C\c3ccc(-c4cccc(C(=O)O)c4C)o3)C2=O)cc1 | inconclusive [inhibitor, full curve] | –
CSc1ccccc1C(=O)NC1CCCCCC1 | inconclusive [inhibitor, single point] | –
Cc1cc(C)cc(C(=O)N(NC(=O)Nc2ccc(Cl)cc2)C(C)(C)C)c1 | inconclusive [inhibitor, single point] | –
O=C(CN1CCN(c2ccc(F)cc2)CC1)Nc1ccc(S(=O)(=O)N2CCOCC2)cc1 | inconclusive [inhibitor, single point] | –
COC(=O)c1ccc(CC(=O)c2c(C)cc(O)cc2O)o1 | inconclusive [inhibitor, partial curve] | –
